This is one part of the list. At the low end of the ranking the order means little. Measured with an extract: partners may take part in the binding.
target: T1, HNF4alpha8 (COS-7 nuclear extract) (UniProt P41235-5); assay: protein-binding microarray; conditions: COS-7 nuclear extract on double-stranded Agilent 4x180k PBM; binding buffer, salt, pH and temperature not given; high values mean tight binding; double strand, one strand shown; sequences stand for … in …GCCTAGGGAGATTAGAGTATCGGTCGA
T1 sequence: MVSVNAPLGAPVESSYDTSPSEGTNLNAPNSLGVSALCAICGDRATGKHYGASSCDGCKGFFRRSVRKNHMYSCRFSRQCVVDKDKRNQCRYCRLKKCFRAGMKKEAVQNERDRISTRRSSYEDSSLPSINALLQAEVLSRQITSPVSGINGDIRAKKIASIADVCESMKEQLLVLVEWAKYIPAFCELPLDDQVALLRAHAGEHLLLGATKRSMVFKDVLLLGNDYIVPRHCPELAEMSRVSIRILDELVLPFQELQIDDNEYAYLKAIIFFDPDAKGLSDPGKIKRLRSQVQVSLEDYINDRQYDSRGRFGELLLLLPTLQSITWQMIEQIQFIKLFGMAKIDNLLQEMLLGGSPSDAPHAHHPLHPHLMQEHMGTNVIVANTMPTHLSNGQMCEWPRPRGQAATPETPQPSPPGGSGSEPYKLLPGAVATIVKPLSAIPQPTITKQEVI

Sequence | binding signal (log2 normalized intensity)
AATGTTTGTAGGGACTTTGACCCCTAAAAC | 9.59
TCACAACCTCCCTTTGAAGGAGCCACTGGT | -0.869
AGTGTGGGGTGACTGACTTAACCCTTGCCT | 2.27
CAGTCCATTTCAGTGAACTTTTCAATGCTC | 1.29
TGAACAGCTCTTCTTGCCAGCTGGCCTCCT | -0.103
ATGTGCCCTTTGTACCTGGGGCAAACATCA | 5.3
CATCCCTCTCCCGCCTCTTGGCCTCCCCCT | 5.62
AAAGGTCAAGAGAATTACAAACAGCCCTGA | -1.39
CCTGCACCTGGAGCCCTTAGGGTCAATGGG | 3.4
GTTTCTTTCCCTGGGGTCAATAGTTGTGTA | 3.69
GACAAGAGTGACCTCTGGTCATTCAATGTT | 3.81
GTGACTTCCTTCCAAAGGTCACAGTAGGGA | 4.99
GTTATTTGCTAAAACTGGGCTGGGTAAGCC | -0.00424
TGTTTGCTTTTCTTATTTACCGAAATGTGG | 2.1
AGGTGACCCTTGAGCTAAGTCCCAAGGGAT | 2.23
TGGTACTTTGAGCCAGTAAGTCTAGGGGTG | 1.23
TACATTTTGCTCTGTTGTGTCAAAGGTCAC | 7
GAGAGAAAAAATCAGAGAGCAAAGGTGATC | 2.63
TGAAGAAACCAACCCTGCCAAAGGTTAAAA | 2.48
TCCCTCATTAGTAACTCCAGAGATAAGATA | -1.4
ATGGAAGTTTGCCCTGGTTGAGGAATTTGG | 1.54
TATTACTAAGTGAGAAAAGAACCATGAGAG | -1.29
TTAAAGACCAAAGATCACAGTGAAGGTGAA | 1.56
GATTACATGGGAGATAGAGCAGTGGAAGAC | -1.23
TTGATTCCATGCTGATAATGGAATTGACAT | 1.07

Sequence | binding signal (log2 normalized intensity)
AGAGAAGTTGATTGCACCCTTCCCTAAGAT | 0.522
TGTGAACCCAGGCAAAGTCCAGAAATAGCA | 1.97
AGATCTCAGTTGGTCCAAGGTACATGTCTC | 2.75
AAAGCCCTTTTTGGAATGTGTTTGCATGAC | 1.79
GAAGCCCAGCAGCTCCAGGAGACGTAGAGA | -1.35
CTGACTAGGACAGAGCAGATGAAAGTAGTT | -1.43
CTCTGTGAAGTGGAGATAATAGGAGATAAT | -0.251
CTGCACTTTTGTGCTCTGTACCCGGCTGCC | 1.32
GAATTTCATTTTGCTCTTTGTTCAGATACA | 2.4
GGGCTGGGGGCAGGGCTGGTCGGATGGCCG | -1.25
CCCACAATCAGTCTGATTGGTTGCAGAAGG | 1.06
GGGCAATGACCTGGACAGGTCCAAGGTTCT | 2.45
AGAGACTAGTATGTAAATAAGAGCTTTGCA | -1.13
AGAAATTGCGCTAACCAGATGGTAGATGGG | -0.943
AGCAGCTTGAGGCTCCGATAAACCCAGGCA | -1.38
GCTTTTGCACTTTACTCAGAAAGGTCAGCG | 3.54
ACCTTTGCTCACGTTTTCCTGCTGACCCTC | 3.93
AATGTTTCAAAGTTTTTCCCCTTGGTGGAT | 2.11
GCCGTTGGACCAAGCTCTAGCATCCCTCTC | -1.44
GACATGATCAAAGTTCATTGTAGCCTCAAA | 3.81
GTAGGGCCAATCTCTGGCATGTATTTATCA | 0.383
ATTTGATAAGATGTGTAAAACACAAATCTC | -1.13
CACAAAGGTGCAAAGTACATATTTACTTAC | 4.08
AAAGAGATTGGACTTTGGCCTGTGAATCCA | 9.05
GTCCCAAGCATCTCTGAGCAGTGAATGTTG | -0.929

Sequence | binding signal (log2 normalized intensity)
ATTTTTATCTGTTTATTTTGCAATTAACAA | -1.14
TTCACACCATGCTCTAGTCTTCCTGTCTCC | -1.18
CCATTATCTCCTTAGGTACTTTTCTGTTTG | 1.84
TAAGGGTGTTTGTCCTTTGTTGCAATGCTG | 0.969
AAGATTGTTGAATACTTGGAGACAGTGAGA | 0.311
CAGTATTTGGTGAGGCCCCAGTGTCAATTC | 1.72
TTATCTAGACAAATTTGTTTACTTCTGTCT | 1.23
CTCAGATGCCAGCTAAGATCAGTAGCTAGG | -1.26
CCCCAATACACACACACCCCTCCACTGGAC | 3.78
AAAACATATTTGCATAATGGAGCAAAGGTC | 6.3
CCTCGGTGGAGTTGACACAGACCTGCCTCT | -1.29
TCCTGTTCAACTATTCCTCGACCTTCGGCT | 3.34
AATATAGGCCAGGCATACCTTTCTTATCAT | -1.22
TCTTATCTAGGTAAGTATAGTGGGAGGAGA | 0.442
GGCTGCGACCTGCTGGGCTGCATTCCCAGA | -1.33
AGCAGTCCCTTCCCCCCTCCTCATTGAGAG | 4.38
CAGAGATCAAAAACCAAAGCTGGAGTGCAG | -0.858
CCAAGGTGCTAGCTCCGACTCAGTGGGGGG | -1.4
GTGGCCTGTGCCTGTAGTCCCAGCGACTTG | -1.21
CACATTGTAGCTAAAATGTTAATGATTACT | -0.906
CAGCGGCCGGAAAAAGTGAGGAGCAGCAGA | -1.22
CGGACGGGCTGCGGAGGCGACTGCAGATTG | -1.3
TTCCATTAACTGAACCTAGATTCCAGGAAG | 0.602
TTCAGCAAATACTAATTCTCCCCCACCTGT | 4.57
TTCTCCGGGTTCTGCGCAGGGAGGAGCGCA | -1.21

Sequence | binding signal (log2 normalized intensity)
GTGCAAGGGAATGTAAGGCACTTTATCTAG | -0.923
ACTGGAATAAAGCAGTCCCTACTTCAAAGG | -1.2
CTGGGATCCAAAGTTCATGGAAAGTTTCAC | 3.14
TACAAATTCCAAGGACTGAGATAAGAGAAG | -1.31
CTCCCTCTGAAGGGAGGGCCAAGCCCTCCA | -1.32
AGTGCAAAGGAGTCTGATTGTTGTGTGCCC | 1.81
TGGCCATTTGGGAAACCGCGATTAAAAATG | -1.29
TTGAGGAGAGTCAAAGGTTAATGAGCCCCC | 5.04
CCCCCTGCTCCAGGCCGGCTTGCGTCCCCA | 3.17
AGCCTACCCACCCACACCTCCCCTTTGTTT | 3.22
CTTTCTGCATCGCAGTCGCCTGCAAGACAA | -1.24
AAACTTTAGTAGTCCAAAGCTCAGATTGCC | 1.79
GGATAGAATCAAAGGTCAGGAATCGCATTG | 3.66
GTGTCTCCGAGATAAGGCGTCTTATCAGCC | -1.36
GGTCTTTGCCCTTTCCTAGACGTAAGACAA | 2.53
TGGGTTCTTGCCCTTTGGTCTGGAACACAG | 4.41
TATCTCACTTATTTGTCATAATGCTCTTAT | 1.56
ATAGCTACGGGTGACCTTGAGCACTAAAGA | 1.03
ACTCCATCCTCACTTTAGGTGCTCTTGGCT | -1.24
TGAAAGTTCTCTGGGCTTTTTGATCTTGTC | 1.25
AAATCACAATTTTCAAGAACAAACAAATTT | -0.984
ACGCACGGCAGAGCACCTGGATAAGCCAGA | -1.42
ACAGAAGAAGGAAAAGGCCTGACCTTTGCC | 5.58
TGGTGTGGACAGCAGACAACTTTTCCTCTA | -1.35
AGTCCAAAGCTCAGATTGCCTAAAGGGGAT | -1.36

Sequence | binding signal (log2 normalized intensity)
CATCTTTGAGCTGGATGACCTTTGTCCTGG | 9.19
ATGGTTAGCACTCTGGACTCTGAATCCAGC | 3.4
ACGCAGTCCCGCGTGGCCTTGTGGGAGCTG | -1.38
AGTGGCTTTGTTGATAACAAGTAAAATGAG | -0.132
TGTGTCTTTATAACAGACTGTAGGCTTGGA | 1.52
TTTAAAGTGTAATTAAGGAAGATGGTGCAA | -1.29
AGGCTGAAGTGAAGTTACAAAGGTCACGCT | 5.72
AAGCAGGACTTAAACACCAGTACTCTTTAA | -1.34
TTTGGAGTTTGACCTGGAGCCAGGGCCTTT | 3.92
TAACAAGGCAAACTTTATCAAGACTGCAGC | -1.38
TACTGACTGAGAAACCAAGATCCTAGTCTT | -1.32
TGGTGCAAAGGTCAGGACAAGGCTCTGGTG | 4.55
TATCAGACCAGCATTCTTTCTGCTGCAATT | -1.04
CTGTTTTCAAACACAGGATTGAACCTCTGG | 3.05
GGGTGGAAATCATCTCCATGCCGACTCCGA | -1.26
CAGACACACAGTCCACAGGCTATAGGGAAG | -1.35
GAGCATACATGCAGCTGAGAAAGAGAAAAT | -1.28
AGAATATTAGATGATAAGGGTGAAAAGATA | -1.2
GCTGGGTCAAAGTGTATGCATATTTTAAGT | 2.27
GTGCAGCTGACCTACATTCCACCCTCATTT | 0.796
ACGTCGAGCAGGCCCCGTCCCCGCCCCTTG | 5.02
AGGCAAGAAGTATGACAACAAAGCATTATC | -1.49
TGACTTTACCTGAAATGAGACCAAAGTATT | 0.577
ACTCTGAAGGAATGTAAACTCCAAGGAGCA | -1.44
ACTGCGAAAGATAAAAGGCCATAGGGAAAG | -1.22

Sequence | binding signal (log2 normalized intensity)
CCCCTCTTTATCTCCTGGAATCCAAAGTAT | 2.05
CCAGTGGTATGCCTCTGGGTGTCAGGGTTC | 2.65
TTGAGTCCATCCCATCTTCCAGAAATGCCA | 0.273
CGTGAGAAGAGGACTTTTTTTTGCCTAACT | -1.4
TGTGAGGATTGATTAGATAACATCTGGACT | 2.52
AACCATACCTGGACAGCCTTTTTCAAGCAA | -1.21
CAGTTTCTTTAAGACAAGTGTCCCTCAAAC | 0.83
TGGTGCCCTCTGAGTGTTTGACCTTTCACC | 8.17
GGGCGGCCGGCGGAGCGCCGAGCAGGCACC | -1.36
AAATATTGTCAGTGAGGAATGTGCAAACGG | 0.32
TCTTGGCCTCCCCCTTCTGAGTCTCCAATG | 2.82
GACCCCAGGGCAAAGTGCATTGGAGGCCAG | 4.14
GGAAACAATGGCCTTGCTGCGGATCAAAGG | 2.54
CTCAATGCAACCAGTTGGTGGGTCAAGGTG | 1.58
AGAGAAAGGACCAGTTGAGTGCAAAGTCCC | 3.85
AACAGACAAAATTAAGTGATTTGCCCAATA | -1.13
GGATTCCTGATGCGTTCAAGGAACAGCCAG | -1.34
TTGAGTCAACACACCTGTGGGTAATTAATC | 0.464
GCCAGGCAGAGCAGGTTCTCAGGCCAATCA | -1.33
GATGACCCCTCTCTACTGGTAAGCAAATAT | 2.09
